# Some of the results follow.
# B1: MpL2 (Macrolepiota procera) (protein)
# chain: MSTQVSSGQTYKITNVKAGTVIDLSGEDNKSIIGYPYHSGKNQQWTFNWTGKAWTLRSASSGSYLGIEGTPADGTRLVAVNDPFEWHIWRDEANENAFRIFVPFTNYNLRLSGYGDTTPGTPVQLWWTWEGLHQTWTIDRP
# Experiments:
# Test in all cases: glycan array binding signal (z-score within array); higher = stronger binding
# Details in all cases: glycan notation: IUPAC condensed, linker removed; mutation: D109R
# [1] = target: Neu5Ac(a2-3)Gal(b1-3)GlcNAc(b1-6)GalNAc
# Method in brief: (§1)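 Glycan array binding is given as a within-array Z-score, which can be read as non-binding when negative. The arrays, 3228 of them, came from the Consortium for Functional Glycomics database and were retained only where the protein sequence was available. Z-scores were averaged across arrays of the same protein sequence at different concentrations or buffers and across linkers.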
# [2] = target: Neu5Ac(a2-3)Gal(b1-3)GlcNAc6S
# Method in brief: as §1
# [3] = target: Neu5Ac(a2-3)Gal(b1-3)[Fuc(a1-4)]GlcNAc
# Method in brief: as §1
# [4] = target: Neu5Ac(a2-3)Gal(b1-3)[Fuc(a1-4)]GlcNAc(b1-3)Gal(b1-3)[Fuc(a1-4)]GlcNAc
# Method in brief: as §1
# [5] = target: Neu5Ac(a2-3)Gal(b1-3)[Fuc(a1-4)]GlcNAc(b1-3)Gal(b1-4)[Fuc(a1-3)]GlcNAc
# Method in brief: as §1
# [6] = target: Neu5Ac(a2-3)Gal(b1-3)[GlcNAc(b1-6)]GalNAc
# Method in brief: as §1
# [7] = target: Neu5Ac(a2-3)Gal(b1-3)[Neu5Ac(a2-6)]GalNAc
# Method in brief: as §1
# [8] = target: Neu5Ac(a2-3)Gal(b1-3)[Neu5Ac(a2-6)]GlcNAc(b1-3)[Fuc(a1-3)[Gal(b1-4)]GlcNAc(b1-6)]Gal(b1-4)Glc
# Method in brief: as §1
# [9] = target: Neu5Ac(a2-3)Gal(b1-3)]Neu5Ac(a2-3)Gal(b1-4)]GlcNAc
# Method in brief: as §1
# [10] = target: Neu5Ac(a2-3)Gal(b1-4)Glc
# Method in brief: as §1
# [11] = target: Neu5Ac(a2-3)Gal(b1-4)GlcNAc
# Method in brief: as §1
# [12] = target: Neu5Ac(a2-3)Gal(b1-4)GlcNAc(b1-2)Man
# Method in brief: as §1
# [13] = target: Neu5Ac(a2-3)Gal(b1-4)GlcNAc(b1-2)Man(a1-3)[GlcNAc(b1-4)][Neu5Ac(a2-3)Gal(b1-4)GlcNAc(b1-2)Man(a1-6)]Man(b1-4)GlcNAc(b1-4)GlcNAc
# Method in brief: as §1
# [14] = target: Neu5Ac(a2-3)Gal(b1-4)GlcNAc(b1-2)Man(a1-3)[Neu5Ac(a2-3)Gal(b1-4)GlcNAc(b1-2)Man(a1-6)]Man(b1-4)GlcNAc(b1-4)GlcNAc
# Method in brief: as §1
# [15] = target: Neu5Ac(a2-3)Gal(b1-4)GlcNAc(b1-2)Man(a1-3)[Neu5Ac(a2-3)Gal(b1-4)GlcNAc(b1-2)Man(a1-6)]Man(b1-4)GlcNAc(b1-4)[Fuc(a1-6)]GlcNAc
# Method in brief: as §1
# [16] = target: Neu5Ac(a2-3)Gal(b1-4)GlcNAc(b1-2)Man(a1-3)[Neu5Ac(a2-6)Gal(b1-4)GlcNAc(b1-2)Man(a1-6)]Man(b1-4)GlcNAc(b1-4)GlcNAc
# Method in brief: as §1
# [17] = target: Neu5Ac(a2-3)Gal(b1-4)GlcNAc(b1-2)[Neu5Ac(a2-3)Gal(b1-4)GlcNAc(b1-4)]Man(a1-3)[GlcNAc(b1-4)][Neu5Ac(a2-3)Gal(b1-4)GlcNAc(b1-2)[Neu5Ac(a2-3)Gal(b1-4)GlcNAc(b1-6)]Man(a1-6)]Man(b1-4)GlcNAc(b1-4)GlcNAc
# Method in brief: as §1
# [18] = target: Neu5Ac(a2-3)Gal(b1-4)GlcNAc(b1-2)[Neu5Ac(a2-3)Gal(b1-4)GlcNAc(b1-4)]Man(a1-3)[GlcNAc(b1-4)][Neu5Ac(a2-3)Gal(b1-4)GlcNAc(b1-4)Man(a1-6)]Man(b1-4)GlcNAc(b1-4)GlcNAc
# Method in brief: as §1
# [19] = target: Neu5Ac(a2-3)Gal(b1-4)GlcNAc(b1-2)[Neu5Ac(a2-3)Gal(b1-4)GlcNAc(b1-6)]Man(a1-6)[Neu5Ac(a2-3)Gal(b1-4)GlcNAc(b1-2)Man(a1-3)][GlcNAc(b1-4)]Man(b1-4)GlcNAc(b1-4)GlcNAc
# Method in brief: as §1
# [20] = target: Neu5Ac(a2-3)Gal(b1-4)GlcNAc(b1-3)Gal
# Method in brief: as §1
# [21] = target: Neu5Ac(a2-3)Gal(b1-4)GlcNAc(b1-3)Gal(b1-3)GlcNAc
# Method in brief: as §1
# [22] = target: Neu5Ac(a2-3)Gal(b1-4)GlcNAc(b1-3)Gal(b1-4)GlcNAc
# Method in brief: as §1
# [23] = target: Neu5Ac(a2-3)Gal(b1-4)GlcNAc(b1-3)Gal(b1-4)GlcNAc(b1-2)Man(a1-3)[Neu5Ac(a2-3)Gal(b1-4)GlcNAc(b1-3)Gal(b1-4)GlcNAc(b1-2)Man(a1-6)]Man(b1-4)GlcNAc(b1-4)GlcNAc
# Method in brief: as §1
# [24] = target: Neu5Ac(a2-3)Gal(b1-4)GlcNAc(b1-3)Gal(b1-4)GlcNAc(b1-3)Gal(b1-4)GlcNAc
# Method in brief: as §1
# [25] = target: Neu5Ac(a2-3)Gal(b1-4)GlcNAc(b1-3)Gal(b1-4)GlcNAc(b1-3)Gal(b1-4)GlcNAc(b1-2)Man(a1-3)[Neu5Ac(a2-3)Gal(b1-4)GlcNAc(b1-3)Gal(b1-4)GlcNAc(b1-3)Gal(b1-4)GlcNAc(b1-2)Man(a1-6)]GalNAc
# Method in brief: as §1
# [26] = target: Neu5Ac(a2-3)Gal(b1-4)GlcNAc(b1-3)Gal(b1-4)GlcNAc(b1-3)GalNAc
# Method in brief: as §1
# [27] = target: Neu5Ac(a2-3)Gal(b1-4)GlcNAc(b1-3)Gal(b1-4)GlcNAc(b1-3)[Neu5Ac(a2-3)Gal(b1-4)GlcNAc(b1-3)Gal(b1-4)GlcNAc(b1-6)]GalNAc
# Method in brief: as §1
# [28] = target: Neu5Ac(a2-3)Gal(b1-4)GlcNAc(b1-3)Gal(b1-4)GlcNAc(b1-6)[Gal(b1-3)]GalNAc
# Method in brief: as §1
# [29] = target: Neu5Ac(a2-3)Gal(b1-4)GlcNAc(b1-3)Gal(b1-4)[Fuc(a1-3)]GlcNAc
# Method in brief: as §1
# [30] = target: Neu5Ac(a2-3)Gal(b1-4)GlcNAc(b1-3)GalNAc
# Method in brief: as §1
# [31] = target: Neu5Ac(a2-3)Gal(b1-4)GlcNAc(b1-3)[Neu5Ac(a2-3)Gal(b1-4)GlcNAc(b1-6)]GalNAc
# Method in brief: as §1
# [32] = target: Neu5Ac(a2-3)Gal(b1-4)GlcNAc(b1-6)GalNAc
# Method in brief: as §1
# [33] = target: Neu5Ac(a2-3)Gal(b1-4)GlcNAc(b1-6)[Gal(b1-3)]GalNAc
# Method in brief: as §1
# [34] = target: Neu5Ac(a2-3)Gal(b1-4)GlcNAc(b1-6)[Neu5Ac(a2-3)Gal(b1-3)]GalNAc
# Method in brief: as §1
# [35] = target: Neu5Ac(a2-3)Gal(b1-4)GlcNAc6S
# Method in brief: as §1
# [36] = target: Neu5Ac(a2-3)Gal(b1-4)[Fuc(a1-3)]GlcNAc
# Method in brief: as §1
# [37] = target: Neu5Ac(a2-3)Gal(b1-4)[Fuc(a1-3)]GlcNAc(b1-2)Man
# Method in brief: as §1
# [38] = target: Neu5Ac(a2-3)Gal(b1-4)[Fuc(a1-3)]GlcNAc(b1-3)Gal
# Method in brief: as §1
# [39] = target: Neu5Ac(a2-3)Gal(b1-4)[Fuc(a1-3)]GlcNAc(b1-3)Gal(b1-4)GlcNAc
# Method in brief: as §1
# [40] = target: Neu5Ac(a2-3)Gal(b1-4)[Fuc(a1-3)]GlcNAc(b1-3)Gal(b1-4)[Fuc(a1-3)]GlcNAc(b1-3)Gal(b1-4)[Fuc(a1-3)]GlcNAc
# Method in brief: as §1
# [41] = target: Neu5Ac(a2-3)Gal(b1-4)[Fuc(a1-3)]GlcNAc(b1-3)GalNAc
# Method in brief: as §1
# [42] = target: Neu5Ac(a2-3)Gal(b1-4)[Fuc(a1-3)]GlcNAc(b1-6)[Gal(b1-3)]GalNAc
# Method in brief: as §1
# [43] = target: Neu5Ac(a2-3)Gal(b1-4)[Fuc(a1-3)]GlcNAc(b1-6)[Neu5Ac(a2-3)Gal(b1-3)]GalNAc
# Method in brief: as §1
# [44] = target: Neu5Ac(a2-3)Gal(b1-4)[Fuc(a1-3)]GlcNAc6S
# Method in brief: as §1
# [45] = target: Neu5Ac(a2-3)Gal6S(b1-4)GlcNAc
# Method in brief: as §1
binder,measurement,setting,value
B1,glycan array binding signal (z-score),[1],-0.243
same,glycan array binding signal (z-score),[2],-0.217
same,glycan array binding signal (z-score),[3],-0.249
same,glycan array binding signal (z-score),[4],-0.271
same,glycan array binding signal (z-score),[5],-0.251
same,glycan array binding signal (z-score),[6],-0.286
same,glycan array binding signal (z-score),[7],-0.276
same,glycan array binding signal (z-score),[8],-0.229
same,glycan array binding signal (z-score),[9],-0.263
same,glycan array binding signal (z-score),[10],-0.242
same,glycan array binding signal (z-score),[11],-0.348
same,glycan array binding signal (z-score),[12],-0.23
same,glycan array binding signal (z-score),[13],-0.261
same,glycan array binding signal (z-score),[14],-0.278
same,glycan array binding signal (z-score),[15],-0.215
same,glycan array binding signal (z-score),[16],-0.266
same,glycan array binding signal (z-score),[17],-0.282
same,glycan array binding signal (z-score),[18],-0.282
same,glycan array binding signal (z-score),[19],-0.302
same,glycan array binding signal (z-score),[20],-0.29
same,glycan array binding signal (z-score),[21],-0.262
same,glycan array binding signal (z-score),[22],-0.251
same,glycan array binding signal (z-score),[23],-0.117
same,glycan array binding signal (z-score),[24],-0.31
same,glycan array binding signal (z-score),[25],-0.078
same,glycan array binding signal (z-score),[26],-0.242
same,glycan array binding signal (z-score),[27],-0.178
same,glycan array binding signal (z-score),[28],-0.24
same,glycan array binding signal (z-score),[29],-0.257
same,glycan array binding signal (z-score),[30],-0.273
same,glycan array binding signal (z-score),[31],-0.234
same,glycan array binding signal (z-score),[32],-0.276
same,glycan array binding signal (z-score),[33],-0.241
same,glycan array binding signal (z-score),[34],-0.281
same,glycan array binding signal (z-score),[35],-0.262
same,glycan array binding signal (z-score),[36],-0.266
same,glycan array binding signal (z-score),[37],-0.294
same,glycan array binding signal (z-score),[38],-0.253
same,glycan array binding signal (z-score),[39],-0.236
same,glycan array binding signal (z-score),[40],-0.274
same,glycan array binding signal (z-score),[41],-0.187
same,glycan array binding signal (z-score),[42],-0.2
same,glycan array binding signal (z-score),[43],-0.168
same,glycan array binding signal (z-score),[44],-0.264
same,glycan array binding signal (z-score),[45],-0.286

# — the supplement of paper PMC8728848
